This note sets out measurements from the supplement of paper PMC11417369.

The other results are listed elsewhere or left out.

The assay has as its system PfHDP1 homeodomain (GST-tagged). Nature of the assay: gcPBM binding intensity (ln(normalized median fluorescence intensity)); higher = stronger DNA binding. In a few lines: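 Alexa488 anti-GST antibody, scanned at 488 nm, detected GST-tagged P. falciparum DNA-binding domains that had been expressed in E. coli and incubated for 1 h on an Agilent 4 × 180k array. The array carried primer-extended double-stranded 36-bp intergenic genomic probes and negative controls. Binding intensity is the highest Masliner-normalised natural-log median intensity across replicate spots of either orientation of each probe.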
In the case of “TTTGTGCTTATCCTAACACACACAACATATAAGAAA [CACACA_site9091]”, the “gcPBM binding intensity (ln)” value was 6.73.

As for “TTATATATACCATAATGTACTCTATTATATAAAAAA [XGTACX_site7464]”, the “gcPBM binding intensity (ln)” value was found to be 6.6.

As to “TGTGTAGCTAGGGGGTTGCTAATTTTTGTTTTGACC [CACACA_negctrl_site634]”, the “gcPBM binding intensity (ln)” value was determined as 7.12.

As for “AGAAAAAACAAAAGAGAAATGAAAAAAAAAAAAAAA [XGTACX_negctrl_site482]”, the “gcPBM binding intensity (ln)” value came to 6.08.

Turning to TAAAATAATATTTATGTGCACATATAATTATTAATT, the “gcPBM binding intensity (ln)” value came out at 10.7.

Turning to “ATATAGATCTATAATACACACTTATGAAATGTCTAA [CACACA_site6946]”, the “gcPBM binding intensity (ln)” value is 6.33.

“TTGTTTCCGATGAAAGAAAGGAAATTATAATATATC [GTGCAC_negctrl_site516]”: the “gcPBM binding intensity (ln)” value came out at 6.53.

With “GTCTCCTTTATTTTTGGTACAGATAAGATAAAAGGA [XGTACX_site1591]”, the “gcPBM binding intensity (ln)” value turned out to be 6.46.

In the case of “AATCAAAATATATCTACACACATTTAAGTAACCCAT [CACACA_site5846]”, the “gcPBM binding intensity (ln)” value was 6.56.

Turning to “TATAACATTATTTTGTGTACACATTCGGTTATATTA [XGTACX_site6310]”, the “gcPBM binding intensity (ln)” value came out at 7.79.

As for “GTGTTCATATATAGCCGTACATATGTCTTATGAACG [XGTACX_site5647]”, the “gcPBM binding intensity (ln)” value was determined as 6.65.

“ATTATCAAAAAAAAAAAAAAAAAAAAAAAAAAAAAA [CACACA_negctrl_site1118]”: the “gcPBM binding intensity (ln)” value came out at 6.32.

Take “TACCTTATATTATATACACACATATAATATAATATA [CACACA_site1328]”: the “gcPBM binding intensity (ln)” value was found to be 7.09.

As to “GATTCATTTCGTAATACACACAACAAATATTTCAAA [CACACA_site1772]”, the “gcPBM binding intensity (ln)” value was 6.86.

For “AATGTAAATAAGTGTACACATATATAATACATACAT [CACACA_site4938]”, the “gcPBM binding intensity (ln)” value is 6.85.

“TGAGAATAAAAAAAAGGGATTATTAGATTTCTCCTT [TGCATGCA_negctrl_site326]”: the “gcPBM binding intensity (ln)” value was 5.62.

Take “TTATGTTGCGAGTTCTTAAGATATAAAAAATTCTTC [GTGCAC_negctrl_site45]”: the “gcPBM binding intensity (ln)” value is 6.31.

For the sequence “ATCATAACTTGATACGCACACGTTATATAAATAAAA [CACACA_site4955]”, the “gcPBM binding intensity (ln)” value was determined as 6.73.

Consider “AAAAAAATAAGGTGCACACAAAAAAAAAAAAAAAAA [CACACA_site812]”, for which the “gcPBM binding intensity (ln)” value turned out to be 9.95.

For the sequence “AAGACAAATTGTGACACACACAAAAAAAAAAAAAAA [CACACA_site3727]”, the “gcPBM binding intensity (ln)” value is 6.09.

For “TATTGGATCACACAAAAATGTATAAATAAATAGAAA [TGCATGCA_negctrl_site490]”, the “gcPBM binding intensity (ln)” value worked out at 6.17.

As for “ATTCAATAAACGTATTGTACAAAAGAACGATATATT [XGTACX_site2533]”, the “gcPBM binding intensity (ln)” value turned out to be 6.65.

On to “TATATATATATATTCACACATAAGATGAATAAAGTG [CACACA_site4225]”, for which the “gcPBM binding intensity (ln)” value amounted to 9.09.

Turning to “ACCATAACATGAATTACAGGAATTGAAAATGTTCCA [CACACA_negctrl_site649]”, the “gcPBM binding intensity (ln)” value stood at 6.1.

On to “TTCTTTATTTTTTCTACACACATTAGATATTCAAAG [CACACA_site7624]”, for which the “gcPBM binding intensity (ln)” value was 6.98.

As to “CAAAATTAATAAGTCACACACACATCTATAATATAT [CACACA_site6519]”, the “gcPBM binding intensity (ln)” value was 6.69.

Turning to “GGTTACATTTTATTTTGTACATAAAAATTTTTATTT [XGTACX_site218]”, the “gcPBM binding intensity (ln)” value amounted to 6.79.

On to GTATTATATATAAAAGTGCATATTTTTTTCCCTTAC, for which the “gcPBM binding intensity (ln)” value was 8.14.

Take “TGTTTATAAATATAAAAAAATATATATATATATTAT [GTGCAC_negctrl_site247]”: the “gcPBM binding intensity (ln)” value is 6.5.

On to “ATTTTATAATTTATATCACACACATATATATATAGT [CACACA_site7885]”, for which the “gcPBM binding intensity (ln)” value came to 6.73.

Turning to “CATATTATTTAAACATGTACTCACATATAAATATAA [XGTACX_site6096]”, the “gcPBM binding intensity (ln)” value came out at 6.31.

As for “TAAAAAAAAAAAATGTGTACATATTATATATATCTT [XGTACX_site2615]”, the “gcPBM binding intensity (ln)” value is 6.08.

Turning to “TTTTTTATTATTATGTGTACGAATATGTGCATATAA [XGTACX_site1364]”, the “gcPBM binding intensity (ln)” value is 9.93.

Regarding “TATAACAAGTAATGTTGTACATTATATTATGTAATA [XGTACX_site2769]”, the “gcPBM binding intensity (ln)” value was 6.07.

“ATGAGTATACTAAGAACACACAAGTTACTTGGTGTT [CACACA_site4981]”: the “gcPBM binding intensity (ln)” value turned out to be 6.42.

For the sequence “GTTACACAAACAAACACACACACACGCACGCACAAA [CACACA_site7191]”, the “gcPBM binding intensity (ln)” value was 7.87.

With “TTTTTTCTCTATATATGTACATATAAAAAATATATC [XGTACX_site6382]”, the “gcPBM binding intensity (ln)” value was 6.8.

For the sequence “AATACACGCAAACACACACACACACCCACATATATA [CACACA_site638]”, the “gcPBM binding intensity (ln)” value was determined as 7.47.

In the case of “ATATATAATATATGTGGTACGCAAAATATTATATTA [XGTACX_site4969]”, the “gcPBM binding intensity (ln)” value turned out to be 6.3.

Regarding “TTATATATAAATGAAAGTACAAAACAGGAAAGAATA [XGTACX_site1076]”, the “gcPBM binding intensity (ln)” value amounted to 7.66.

In the case of “AATGATATATTATAAACACACAAAGATGGATATATA [CACACA_site7349]”, the “gcPBM binding intensity (ln)” value came to 6.42.

For the sequence “GAACATTTCACATGGTGTACTCTCTTTTTCAAATAA [XGTACX_site1632]”, the “gcPBM binding intensity (ln)” value stood at 6.21.

As to “TTTATATTATAATATAATAATGATCTTAATTTTTTT [XGTACX_negctrl_site100]”, the “gcPBM binding intensity (ln)” value worked out at 6.15.

For the sequence “TCAATATACCAAAAATGTACAAAAAATAAACAATAT [XGTACX_site8251]”, the “gcPBM binding intensity (ln)” value was determined as 7.19.

As to “TTTATTTTACAAAAAAGTACAAGAAGAAATATCAAT [XGTACX_site7812]”, the “gcPBM binding intensity (ln)” value amounted to 6.57.

With “ATATTTAGAATGTTCCTACACACCAAATTTAAGTGG [CACACA_site2346]”, the “gcPBM binding intensity (ln)” value is 6.42.

On to “TATTAAAAGTAAAAAACACACATGGATAAATACATA [CACACA_site6048]”, for which the “gcPBM binding intensity (ln)” value is 6.54.

“TGTCCCCCTTTCTATGCACACTTTAAATTATTCAAA [CACACA_site4200]”: the “gcPBM binding intensity (ln)” value was 9.8.

Regarding “ATTAATCCAAATGAATGTACTTAATAATGTAATTAT [XGTACX_site8946]”, the “gcPBM binding intensity (ln)” value worked out at 5.83.

“AAAAAAAAAATACATACACACACACCCACCCATATA [CACACA_site9187]”: the “gcPBM binding intensity (ln)” value stood at 7.4.

Take “ATATATATTATATGCACACTTATATTTCATTAGATT [CACACA_site2599]”: the “gcPBM binding intensity (ln)” value is 10.3.

As for “TATTATTTATTATATGCACACATCGAACTATTATTT [CACACA_site2544]”, the “gcPBM binding intensity (ln)” value stood at 9.78.

For “TATTCGAAAGAATAGGCATGCAAACATATCTTATTA [TGCATGCA_site147]”, the “gcPBM binding intensity (ln)” value came out at 6.32.

In the case of “ATATAATATTAGTGCACACACAAAAATGTACTAAAC [CACACA_site632]”, the “gcPBM binding intensity (ln)” value worked out at 10.4.

As to “AAACATATAAATCACGGTACACATTATTGAAAGTGT [XGTACX_site2966]”, the “gcPBM binding intensity (ln)” value came to 6.41.

Regarding “TTCTATATTATATATGCATGTGTTATTCTTATTTTC [TGCATGCA_site92]”, the “gcPBM binding intensity (ln)” value was 6.81.
